Experimental data reported in PubChem BioAssay AID624417 (National Center for Advancing Translational Sciences (NCATS), 2012).
Among all 410,000 compounds or so, about 6,400 (1.6%) were called active. Inconclusive means that the source gave no clear call. Such entries were picked first, then a sample of the others. Calls come from the whole dose curve; as a rule, active = well fitted inhibition curve with a large enough effect; inconclusive = small, poorly fitted or top-dose-only effect; inactive = no such curve, though single readings can be large or run the other way. No potency is given beside an inconclusive call; the fits are too rough.

These molecules were tested against Glucagon-like peptide 1 receptor (Homo sapiens) (UniProt P43220) (assay: qHTS of GLP-1 Receptor Inverse Agonists (Inhibition Mode)). Conditions: HEK293 GLP-1R CRE-luciferase, luminescence, 24 h, GLP-1R form is constitutively active; series mostly up to 38.3 µM.
Chain of UniProt P43220 (P43220 whole entry, looked up): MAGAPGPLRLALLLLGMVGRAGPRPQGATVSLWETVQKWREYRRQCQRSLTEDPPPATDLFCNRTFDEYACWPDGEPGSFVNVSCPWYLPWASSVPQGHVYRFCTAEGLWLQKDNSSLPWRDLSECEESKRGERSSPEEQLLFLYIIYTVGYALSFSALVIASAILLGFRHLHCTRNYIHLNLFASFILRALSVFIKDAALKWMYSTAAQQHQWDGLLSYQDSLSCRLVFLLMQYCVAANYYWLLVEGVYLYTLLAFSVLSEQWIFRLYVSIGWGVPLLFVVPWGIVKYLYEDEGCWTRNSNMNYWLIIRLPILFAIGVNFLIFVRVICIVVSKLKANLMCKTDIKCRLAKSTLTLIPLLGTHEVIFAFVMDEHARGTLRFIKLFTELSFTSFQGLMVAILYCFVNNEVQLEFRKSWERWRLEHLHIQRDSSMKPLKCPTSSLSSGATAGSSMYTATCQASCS
In short: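 Stable HEK293 clone (constitutively active GLP-1R + cAMP-response luciferase); 200 cells/uL plated, 12 h pre-culture, compound 24 hr, 37 deg C/5% CO2; detection reagent 12 min RT; luminescence.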
Note: nearly all actives have a fitted effect of over 55% in size.
Potency is the fitted concentration of half-maximal effect; tags give direction and shape of the fitted curve.

SMILES | Potency
COc1ccc(C(=O)CSc2nnc(CN3CCCCC3)n2-c2ccc(F)cc2)cc1OC | inconclusive [inhibitor, partial curve, poor fit]
Cc1cc(NC(=O)CSCC(=O)Nc2ccc(Cl)c(C(F)(F)F)c2)no1 | inconclusive [inhibitor, single point]
COc1cc(OC)c(NC(=S)Nc2cccc(C)c2)cc1Cl | inconclusive [inhibitor, partial curve]
CCc1ccccc1NS(=O)(=O)c1c(C(=O)N2CCCCCC2)c(C)n(C)c1C | inconclusive [inhibitor, partial curve, poor fit]
CCC(C)Nc1nc(Cl)nc(NCCOc2ccccc2)n1 (configuration not stated) | inconclusive [inhibitor, single point]
CCOC(=O)/C(C#N)=C/c1c(OCC)n(CC)c2ccccc12 | inconclusive [inhibitor, partial curve, poor fit]
N#CC1=C(N)Oc2cc(Nc3ccccc3)ccc2C1c1ccncc1 (configuration not stated) | inconclusive [inhibitor, partial curve, poor fit]
O=C(c1cc(-c2ccccn2)nc2c(Cl)cccc12)N1CCN(S(=O)(=O)c2ccccc2)CC1 | inactive
CCn1ncc(C2=NOC(C(=O)Nc3cnn(C45CC6CC(CC(C6)C4)C5)c3)C2)c1C (configuration not stated) | inconclusive [inhibitor, single point]
NC(CSS(=O)(=O)O)=NCCC12CC3CC(CC(O)(C3)C1)C2 | inactive
COc1ccc(S(=O)(=O)N2CCCCCC2)cc1C(=O)NCCOc1ccc(C)cc1 | inconclusive [inhibitor, partial curve, poor fit]
Cn1c(SCC(=O)Nc2ccc3[nH]c(=O)[nH]c3c2)nnc1-c1ccc(F)cc1 | inactive
CC1(C)COC(/C=C/c2ccc([N+](=O)[O-])cc2)=N1 | inconclusive [inhibitor, single point]
CCOC(=O)c1ccccc1NC(=O)CN1C(=O)CC(c2ccco2)Sc2ccccc21 (configuration not stated) | inconclusive [inhibitor, single point]
COc1c(C)cc(C(=O)C2CCCN(Cc3cnc(N4CCOCC4)s3)C2)cc1C (configuration not stated) | inconclusive [inhibitor, partial curve, poor fit]
CC(C)c1ccc(CCNC(=O)c2cccc(S(=O)(=O)N3CCN(C)CC3)c2)cc1 | inconclusive [inhibitor, single point]
CC1CC(C)CN(C(=O)Cn2ncc3c([nH]c4ccccc43)c2=O)C1 (configuration not stated) | inconclusive [inhibitor, single point]
